This is one part of the list. The full chains were built here from the parent and the listed change. Values near 0.05 are background.
B1: TEV protease; numbered along this chain (parent)
chain: MGESLFKGPRDYNPISSSICHLTNESDGHTTSLYGIGFGPFIITNKHLFRRNNGTLVVQSLHGVFKVKDTTTLQQHLVDGRDMIIIRMPKDFPPFPQKLKFREPQREERICLVTTNFQTKSMSSMVSDTSCTFPSGDGIFWKHWIQTKDGQCGSPLVSTRDGFIVGIHSASNFTNTNNYFTSVPKNFMELLTNQEAQQWVSGWRLNADSVLWGGHKVFMVKPEEPFQPVKEATQL

Variants of: B1
Experiment: raw area under fraction-flipped curve 0-4 h after induction (AUC4h, not background-subtracted), DNA-recorder readout of cleavage of the substrate (dimensionless); higher = more cleavage of the substrate by the protease variant
Conditions: temperature: 34 °C; time window: 0-4 h after rhamnose induction
Procedure: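 In vivo DNA recorder in E. coli TOP10(DE3) ΔrhaA at 34 °C. Each TEVp single-site mutant (parent TEVp 0) is paired with a single-site variant of the 7-mer TEVs (canonical ENLYFQ|S). The substrate sits between flexible linkers in a Bxb1-sfGFP-TEVs-SsrA fusion, so cleavage stabilises Bxb1 and speeds flipping of a recombination array, read by NGS. The value is the raw area under the fraction-flipped curve over 0-4 h after rhamnose induction (AUC4h), with ≥20 reads per time point. It is not background-subtracted; inactive controls average about 0.047.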
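Also: Bxb1 expression induced with 0.2% (w/v) L-rhamnose at OD600 near 0.5, cultures sampled hourly, flipped fraction per protease–substrate barcode pair counted by paired-end Illumina sequencing.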

Variant | area with substrate ENLYCQS | area with substrate ENLYDQS | area with substrate ENLYGQS | area with substrate ENLYIQS | area with substrate ENLYMQS | area with substrate ENLYNQS | area with substrate ENLYRQS | area with substrate ENLYWQS | area with substrate ENLYYQS | area with substrate ENLYEQS | area with substrate ENLYKQS | area with substrate ENLYLQS | area with substrate ENLYPQS | area with substrate ENLYSQS | area with substrate ENLYTQS | area with substrate ENLYVQS | area with substrate ENLYHQS | area with substrate ENLYQQS
K7A | 0.0623 | 0.0629 | 0.0735 | 0.118 | 0.125 | 0.064 | 0.0565 | 0.113 | 0.0548 |  |  |  |  |  |  |  |  | 
Y12P | 0.0861 | 0.0579 | 0.0623 | 0.108 | 0.09 | 0.0766 |  | 0.0843 | 0.0621 | 0.0685 | 0.0234 | 0.0961 | 0.067 | 0.0701 | 0.0787 | 0.105 |  | 
S18F | 0.078 | 0.0585 | 0.0614 | 0.0852 | 0.0794 | 0.0514 | 0.0572 | 0.0816 | 0.0815 | 0.094 | 0.0494 | 0.0893 | 0.0731 | 0.0641 | 0.0779 | 0.0894 | 0.0728 | 0.0567
T23M | 0.0864 | 0.0521 |  | 0.115 | 0.0852 | 0.0747 |  | 0.0962 | 0.0611 | 0.0613 | 0.0576 | 0.0653 | 0.0601 | 0.0666 |  | 0.0962 | 0.0651 | 
T23Q | 0.0776 | 0.0554 |  | 0.128 | 0.0628 | 0.0702 | 0.0497 | 0.0758 | 0.0623 | 0.0672 |  | 0.0621 | 0.0359 | 0.0621 |  | 0.107 | 0.0668 | 0.05
G28M | 0.0737 | 0.0585 | 0.06 | 0.0863 | 0.0672 | 0.0709 | 0.0605 |  |  | 0.0588 | 0.0696 | 0.068 | 0.0582 | 0.0607 |  | 0.0829 | 0.0507 | 
T31G | 0.0667 |  | 0.0482 | 0.0931 | 0.069 | 0.0577 | 0.0535 | 0.0654 | 0.0545 | 0.0553 | 0.0665 |  |  | 0.0689 |  | 0.0787 | 0.059 | 0.0595
S32N | 0.094 | 0.0641 | 0.0689 |  | 0.089 |  |  | 0.0708 |  | 0.0489 |  |  | 0.0777 | 0.0755 | 0.0703 | 0.128 | 0.0658 | 0.0503
L33V | 0.0956 | 0.0571 | 0.0719 |  | 0.0853 | 0.0635 | 0.0635 | 0.0524 |  | 0.0614 | 0.0674 | 0.0712 | 0.0602 | 0.0701 |  |  | 0.0676 | 
G39D | 0.0416 | 0.0476 | 0.0514 |  | 0.0531 | 0.0434 | 0.0501 | 0.0447 | 0.0499 | 0.0498 |  | 0.0474 | 0.0426 | 0.0479 | 0.0396 | 0.0438 |  | 
G39S | 0.0286 | 0.0434 | 0.0496 | 0.0567 | 0.0525 | 0.0537 | 0.0466 | 0.0411 | 0.0428 | 0.0426 |  | 0.0379 | 0.0439 |  | 0.032 |  | 0.0428 | 0.051
I42G | 0.0442 | 0.0504 | 0.0505 | 0.043 | 0.0469 | 0.0451 | 0.033 | 0.0353 | 0.0477 | 0.0531 | 0.0551 |  | 0.04 | 0.0425 |  | 0.0475 | 0.0406 | 0.0431
I43V | 0.108 | 0.068 | 0.0617 | 0.072 | 0.0736 |  | 0.0657 | 0.102 | 0.0657 | 0.0584 | 0.0678 |  |  | 0.0734 | 0.0557 | 0.0887 | 0.0768 | 0.069
T44Q | 0.038 | 0.0538 | 0.0307 |  | 0.0411 | 0.0488 |  | 0.0425 | 0.0598 | 0.0378 | 0.0458 |  |  | 0.0515 |  | 0.0439 | 0.0441 | 0.0526
N45Q | 0.063 | 0.0659 | 0.0832 | 0.0627 | 0.0371 | 0.0673 | 0.0588 | 0.059 |  | 0.0551 | 0.0438 | 0.0543 | 0.0657 | 0.0636 |  | 0.0541 | 0.0576 | 0.0688
N52F | 0.0559 | 0.0569 | 0.0651 | 0.0768 | 0.059 |  | 0.0666 | 0.0538 | 0.0772 | 0.063 | 0.0643 |  | 0.062 | 0.0645 | 0.0543 | 0.0625 | 0.059 | 0.0666
N52I | 0.0483 | 0.0491 |  | 0.0844 |  |  |  |  |  |  |  |  |  |  |  |  |  | 0.0604
N52S | 0.0663 | 0.0665 |  | 0.083 | 0.0688 | 0.0576 | 0.064 | 0.0392 | 0.0707 | 0.0724 | 0.0521 | 0.0629 |  | 0.0657 |  |  | 0.0648 | 0.0669
N52Y | 0.0676 | 0.0804 | 0.041 | 0.0805 | 0.0664 | 0.0856 | 0.0802 |  | 0.0517 | 0.0522 | 0.0676 |  | 0.0629 |  | 0.0595 | 0.0867 | 0.07 | 0.0563
N53G | 0.0882 | 0.0656 | 0.0646 | 0.0853 | 0.0729 | 0.0584 |  |  | 0.042 | 0.0605 | 0.0692 | 0.0739 | 0.0693 | 0.0707 | 0.0811 | 0.0953 | 0.0633 | 0.0512
T55E | 0.0703 | 0.0665 | 0.0647 | 0.128 | 0.0855 | 0.0688 | 0.0674 | 0.0842 | 0.0598 | 0.0659 | 0.0561 |  | 0.066 | 0.0665 | 0.0849 | 0.0427 | 0.0735 | 0.0578
T55I | 0.0859 |  |  | 0.121 | 0.0763 |  |  | 0.0802 |  |  | 0.0707 | 0.0649 |  | 0.0892 |  | 0.0988 | 0.0756 | 
V57K | 0.0204 |  | 0.0569 |  |  | 0.0665 |  | 0.0768 | 0.0553 | 0.0665 | 0.0889 |  |  | 0.0831 |  | 0.114 |  | 
V57T | 0.087 | 0.0556 |  | 0.124 | 0.0989 | 0.0588 | 0.0748 | 0.0886 |  | 0.0726 | 0.0795 | 0.0891 | 0.0872 |  |  |  | 0.0669 | 0.0598
G63N | 0.072 | 0.0574 |  | 0.113 | 0.0734 | 0.0594 | 0.0593 | 0.0699 | 0.0733 | 0.0645 | 0.0674 | 0.0434 | 0.0555 | 0.067 | 0.0657 | 0.105 | 0.0697 | 0.0528
T71A | 0.0806 | 0.0607 | 0.0591 | 0.121 | 0.0908 | 0.0599 | 0.0578 | 0.133 | 0.0658 | 0.0627 | 0.0562 |  | 0.0648 | 0.0683 |  |  | 0.086 | 0.0678

Source: the supplement of paper PMC12217912
